These results are taken from article PMC12136788.

Residue numbers refer to the chain shown, from its start. The list shows a part of the results.

T1: UNK ZnF1-6 (called full-length) (human, UniProt Q9C0B0 30-357)
T1 sequence: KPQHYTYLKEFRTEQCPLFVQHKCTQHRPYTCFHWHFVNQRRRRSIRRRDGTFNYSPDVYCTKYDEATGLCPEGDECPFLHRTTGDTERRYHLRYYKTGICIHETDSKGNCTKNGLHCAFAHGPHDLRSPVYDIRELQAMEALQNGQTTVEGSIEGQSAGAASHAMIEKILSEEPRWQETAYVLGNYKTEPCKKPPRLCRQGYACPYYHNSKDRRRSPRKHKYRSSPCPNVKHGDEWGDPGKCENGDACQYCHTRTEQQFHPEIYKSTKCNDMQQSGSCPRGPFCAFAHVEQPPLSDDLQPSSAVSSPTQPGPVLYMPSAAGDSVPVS

B1: chr22:40826605:40826706:-|CDS|ENSG00000100380|unk|FALSE|bound_elsewhere (ssRNA)
RNA: GGGAGUUCUACAGUCCGACGAUCCACCAAAUUACAGGUCUAAAUAAGAGAUGGAAUUUAGGAUAAUAAACUUACUGACCCAGUAGGACACUUUUUAAAUACUAAUGAACCCUUUCUUUUCAGGAUCCAGAAGUUAUGGUGGCUCAACAGAGGAUUGAGCAUCA
B2: chr4:138169334:138169435:-|3pUTR|ENSG00000151012|msi1|total|mutant (ssRNA)
RNA: GGGAGUUCUACAGUCCGACGAUCCCAUUUCACGCAGAAAAAAAGUCAGCCAGUAAUUAAGAAAAAAAGUGAUGGAGAUUAAGCCGUAUUUUGGCUUAUUUUCCGGACUCAUCAUGAGAAGACACAGUUCCUUUAAUCAGGAAACAACAGAGGAUUGAGCAUCA
B3: ENSG00000111670:stop:overlap|stop_codon|ENSG00000111670|stop_codon|NA|stop_codon (ssRNA)
RNA: GGGAGUUCUACAGUCCGACGAUCGGAAGAUAUUUCCCAGAAGGAGGAUACACAAAGAAGCUAGUCCCAAUCGAAUCAGAGUAUAGAAGAUCUUCAUUUGAAAACCAUCUACCUCAGCAUUUACUGAGCAUUUUAAAACUCAGCCAACAGAGGAUUGAGCAUCA
B4: ENSG00000198589:be:win_7851|CDS|ENSG00000198589|bound_else_gene|NA|bound_elsewhere_windowed (ssRNA)
RNA: GGGAGUUCUACAGUCCGACGAUCAAGAUUGAUCCAAGUGGUGUUUGGCCAUUGGGAUGUCGUCACUUGCCUUGCUCGUUCUGAGUCAUAUAUUGGGGGAAAUUGCUACAUUCUCUCAGGGUCACGUGAUGCAACUCUUUUGCUCAACAGAGGAUUGAGCAUCA
B5: chr1:228407934:228408200:-|three_prime_utr|ENSG00000162931|control|control|control (ssRNA)
RNA: GGGAGUUCUACAGUCCGACGAUCGGCCUUCUGCUUACUGCAGGCCACCUGCCAGGGUUCUCUGGCAUCACGCUGGCAGCCAUUAGACACACAGGGGGGUUUCUCAAAUUCUAAAUAUAAUUGUGAUUAGAACUGUCAAACAUUCAACAGAGGAUUGAGCAUCA
B6: chr22:40826605:40826706:-|CDS|ENSG00000100380|unk|total|mutant (ssRNA)
RNA: B1 RNA with U58C, A59C, U83C, A84C

In this test the target is T1, UNK ZnF1-6 (called full-length). Kind of test: nsRBNS (natural sequence RNA bind-n-seq); RBNS binding buffer (assumed for nsRBNS): 25 mM Tris pH 7.5, 150 mM KCl, 3 mM MgCl2, 0.01% Triton X-100, 500 ug/ml BSA, 20 U/ml SUPERase-In, 4 C; UNK is unkempt and MSI1 is Musashi-1; names of the RNAs are library labels; protein concentration not given here; high values mean tight binding.
As for B1, the binding signal amounted to 0.607 enrichment R. For B2 the value was 0.35 enrichment R; for B3, 1.06 enrichment R; for B4, 0.376 enrichment R. B5: the binding signal was determined as 0.937 enrichment R. Next, B6: 0.405 enrichment R.
